Read counts are not given, so values of variants with three or more changes are uncertain.
B1: LINE1-mini (parent)
chain: GGCAGAGCUCAACACAGCGUGGCAAAGUGGCUGUGGCUAGACUGCC

Variants of: B1
Experiment: self-cleavage, relative activity (ratio to wild type); higher = more cleavage; in vitro, sequencing; the parent is a self-cleaving ribozyme

Variant	self-cleavage
G19U U20G C37A	0.01
G19U U28C C42A C45U C46U	0.01
U20C G21A G30C	2.11
U20G A25U G30C	0.14
U20G G21U C23U G36A	0.04
U20A G35A C45G	0.08
G19U G40A G44U	0.05
U20G A26C G33U C42G	0.04
U20C C31U U32G G36C	0.13
U20C G27U U28C G44C C46G	0.06
U20A C23A G27A C31A	0.44
U20A G27U U28A C37A C45G	0.03
U20C G29U G30U	0.49
G19U G33C U38G	0.01
G19U G22C A25U	0.52
U20G A25U G40A G44C	0.07
G19U U32C G36A C46A	0.01
U20C U34A C45A	0.03
U20C G21U G44C	0.02
G19U G21A G27U G40U	0.05
G19U G30A A39G C42G	0.05
G19U C31G U34C C46A	0.02
U20G G21U G22U G35A	0.12
U20A C23U U43A	0.01

Variant	self-cleavage
U20G C37U C42U	0.01
U20C G21U G33A	1.18
U20G A24C U43A G44A	0
U20A U38A C42A	0.01
U20C C23U A25C A26U G36U C37U	0.02
U20C A26U C42U	0.27
U20A A26G G44A	0.5
U20A C23A C45G	0.33
U20G G21U U28C	0.3
U20A G21A C23U	0.39
U20A A25U G29C C42A	0.08
U20C G40C C46G	0.06
G19U U20G C23U	0.36
G19U U20A C37G	0.02
U20G A26U G35U	0.26
U20A U32A C46A	0.02
U20C G36A U38A	0
U20A A25G A26U G40U	0.02
U20G C31G U38C G40A	0.01
U20A U28A C37A	0.04
U20A C23U G36U	0.07
U20G A25U G29A G35U	0.1
G19U C37A C45G	0.03
U20A A39G C46G	0.02

Variant	self-cleavage
U20A G30A C31U	0
U20G C23U A41C	0.07
U20C C31U G44C	0.02
U20A A26C G36U U38A C46A	0.05
U20G G21U U34C U43G G44A	0.05
U20A A41U C45G	0.22
U20A G22U A24U G35C G40A C46A	0.14
U20A A24U G27A G40A C46G	0.12
U20C U34G U43C	0
U20G G21A A41G	0.03
U20A A25C A39U C46U	0.06
U20G G21C G40A A41U	0.01
U20A U28G G35A	0.03
U20C U28A C31G G44U	0.03
G19U U34G G36U	0.04
U20C U32G U34A C46A	0.04
G19U U20G G27U	1.55
U20A C23U G36A C37U	0.02
G19U U20G G35U C37G	0.06
U20A G27U G44C	0.62
G19U G21C A24G	0.28
G19U G27A U28G G36C	0.05
G19U U28G G44A	0.04
U20A A24C G33C	0.04

Variant	self-cleavage
U20A G40U C42U	0.01
G19U G21U G29U	0.36
G19U U32A A41U U43A C45U	0.03
U20C G35C C45A	0.33
U20A A26U U38A	0.13
U20A G44C C45U	0.03
U20C G27U A41C	0.06
U20C A25G G27A C37A A39U	0.05
U20C C23A A41U	0.25
U20G C23U G36U	0.04
G19U G29A C42A	0.35
G19U C31U G33U	0.09
U20C G27U U34A	0.09
U20A A25U G29U G44C C46G	0.07
G19U G21U G40A	0.03
U20A C23G U32A	0.06
U20C C23U A26U G29A G40U C45U	0.16
G19U C42U C45A C46A	0.02
U20A A26G G36C	0.15
G19U G36A G40A	0.31
G19U U38C C42U G44C	0.03
U20G C31U U38A A39C	0.08
U20C A24C C31U	0.06
U20G A26C G36C	0.09

Variant	self-cleavage
G19U U34C U38C	0.09
U20A G21A A26C	0.69
U20G A24U G33A C46A	0.03
U20A U38G C42A	0.01
U20A C31G G40U	0.14
U20A G40A U43A C45A	0.01
U20C U32C U43A	0.01
U20G C42U G44U	0.17
U20A C31A C37A	0.05
U20C G29C C31U G35A	0.08
U20A G27C C31A	0.86
G19U G29A A39U C42A	0.21
U20C G21U C31A C37G	0.7
U20G A25C C37G C45U	0.02
U20A C37A G44C	0.02
G19U U32C U38C A39U A41U C42G	0.08
U20A A26C G30C U38A	0.55
U20C U38C U43A	0.06
U20C A26G G36A	0.05
U20C G22U A26G	0.25
U20C G33C G36C	0.03
U20C G22C G27U U38G C45G	0.03
U20G C37U A39U	0.03
U20C G33U A41U	0.03

Variant	self-cleavage
U20G G21C G22A G35U	0.06
U20G C23G C31A	0.04
U20A G27U C31A C42A	0.04
U20C G21U A39U C42G C46A	0.01
U20A G29A G40U G44U	0.06
G19U G21A A24U	0.82
G19U G22C A24U	0.23
U20G A39U G44U	0.03
G19U U32G G33U C46G	0.03
U20A A26U U32A A39G	0.01
G19U G21A A25U	0.76
U20C G36C U38G C45U	0.01
U20G C31U C46A	0.3
U20A C37A G40A	0.16
G19U C31U U34A	0.01
U20G A25G G30U U34A C42A	0.02
U20G C23A A26U U28C G29U U34A C42U	0.02
U20A C23U C37U	0.04
U20C G27U G29C	0.18
U20G C23A U38C	0.19
U20A G27U C31A	0.33
G19U G40C C46U	0.06
U20A C37A C42G	0.02
U20A U38G U43G	0

Variant	self-cleavage
U20A G30A U32G U38A	0.06
U20A C31A U38G	0.01
U20A A24U A25G U34A G44U	0.03
U20A A26G G29A U43A C45G	0.01
U20A G29A C31U C42A C45G	0.05
U20A C31G U32G C45U	0.01
U20G G21A U28A G30A C31A	1.36
G19U G21A C37A	0.04
U20C G27U G36U	0.06
U20C G30U C31A	0.52
U20C G35C G44C	0.02
G19U G36A A41U U43G	0.04
G19U U20G C46A	0.82
U20C C23G A24G C31G	0.11
U20C C23U A39C	0.02
G19U G22A A26C U38G	0.03
U20A G29C A39C	0.07
G19U G21C C45G	1.64
U20C G27A C37G	0.03
U20C G22A C31A G44U	0.06
U20C G21A G22C	0.2
U20A A26C G29U C45A	0.05
U20A A25C U43A	0.04
